From patent US8222297B2, “Aniline or phenol mustards linked to DNA-affinic molecules or water-soluble aromatic rings and their use as cancer therapeutic agents” (Academia Sinica, priority 2007, dated 2012)

Test system: CCRF-CEM/VBL
Conditions: for fold of cross-resistant, CCRF-CEM/VBL vs IC50 of parent cell line: number in brackets
[1] = read-out: IC50 CCRF-CEM/VBL, XTT assay, 72-hr incubation
[2] = Homo sapiens, CCRF-CEM, 72 h, read-out: IC50 CCRF-CEM/VBL, XTT assay, 72-hr incubation

| Compound | fold of cross-resistant, CCRF-CEM/VBL vs IC50 of parent cell line [x] | IC50 [1] [nM] | IC50 [2] [nM] |
| --- | --- | --- | --- |
| 1-{4-[Bis-(2-chloroethyl)amino]phenyl-3-[6-methoxy-2-(4-methoxyphenyl)quinolin-4-yl]urea [BO-1049] | 1.5 | 551 | – |
| O=C(Nc1ccc(N(CCCl)CCCl)cc1)Nc1c2ccccc2nc2ccccc12 [BO-1034, 1-Acridin-9-yl-3{4-[bis(2-chloroethyl)amino]phenyl}urea] | 2.0 | – | – |
| Cc1cc(NC(=O)Nc2ccc(N(CCCl)CCCl)cc2)c2ccccc2n1 [BO-1038, 1-{4-[Bis(2-chloroethyl)amino]phenyl}-3-(2-methyl-quinolin-4-yl)urea] | 3.4 | – | – |
| Cc1cccc2c(Nc3cc(CO)cc(NC(=O)Nc4ccc(N(CCCl)CCCl)cc4)c3)c3ccccc3nc12 [BO-1050, 1-{4-[bis(2-chloroethyl)amino]phenyl}-3-[3-hydroxymethyl-5-(4-methylacridin-9-ylamino)phenyl]urea] | 4.4 | – | 1320 |
| Cc1ccc(NC(=O)Nc2ccc(N(CCCl)CCCl)cc2)cc1Nc1c2cccc(C)c2nc2c(C(=O)NCCN(C)C)cccc12 [BO-1053, 9-[5-(3-{4-[Bis(2-chloroethyl)amino]phenyl}ureido)-2-methylphenylamino]-5-methylacridine-4-carboxylic acid (2-dimethylaminoethyl)amide] | 25.3 | – | – |
| CN(C)CCNC(=O)c1cccc(NC(=O)Nc2ccc(N(CCCl)CCCl)cc2)c1.Cl [BO-1055, 3-(3-{4-[Bis(2-chloroethyl)amino]phenyl}ureido)-N-(2-dimethylaminoethyl)benzamide hydrochloride] | 6.2 | 791 | – |
| O=C(Nc1cc(CO)cc(Nc2c3ccccc3nc3ccccc23)c1)Oc1ccc(N(CCCl)CCCl)cc1 [BO-1062, [3-(Acridin-9-ylamino)-5-hydroxymethylphenyl]carbamic acid 4-[bis(2-chloro-ethyl)amino]phenyl ester] | 3.4 | – | 194 |
| Cc1cccc2c(Nc3cc(CO)cc(NC(=O)Oc4ccc(N(CCCl)CCCl)cc4)c3)c3ccccc3nc12 [BO-1063, [3-Hydroxymethyl-5-(4-methylacridin-9-ylamino)phenyl]carbamic acid 4-[bis(2-chloroethyl)amino]phenyl ester] | 1.8 | – | – |
| Cc1ccc(Nc2c3ccccc3nc3c(C)cccc23)cc1NC(=O)Oc1ccc(N(CCCl)CCCl)cc1 [BO-1064, [2-Methyl-5-(4-methylacridin-9-ylamino)phenyl]carbamic acid 4-[bis(2-chloro-ethyl)amino]phenyl ester] | 1.3 | – | 146 |
| COc1cc(NC(=O)Oc2ccc(N(CCCl)CCCl)cc2)cc(Nc2c3ccccc3nc3ccccc23)c1 [BO-1066, [3-(Acridin-9-ylamino)-5-methoxyphenyl]carbamic acid 4-[bis(2-chloroethyl)-amino]phenyl ester] | 0.52 | – | – |
| CC(=O)O[C@H]1C(=O)[C@@]2(C)[C@H]([C@H](OC(=O)c3ccccc3)[C@]3(O)C[C@H](OC(=O)[C@H](O)[C@@H](NC(=O)c4ccccc4)c4ccccc4)C(C)=C1C3(C)C)[C@]1(OC(C)=O)CO[C@@H]1C[C@@H]2O [Taxol, reference compound] | 980 | – | – |

Where two headings read alike, the source gives them in different places.
